Laboratory results from ChEMBL document CHEMBL4888484, “Replenishing the malaria drug discovery pipeline: Screening and hit evaluation of the MMV Hit Generation Library 1 (HGL1) against asexual blood stage Plasmodium falciparum ,using a nano luciferase reporter read-out” (2022).
Among all 4,800 compounds or so, about 410 (8.5%) showed an effect of 50% or more. The list shows a part of the results.

tested on: Plasmodium falciparum; assay: Confirmatory screen in NF54 pLDH assay, in single point, at 2uM, 72h; assay type: functional, Erythrocyte; details: timepoint 72 hour

SMILES | % Inhibition
O=C(Nc1ccc(N2CCOCC2)nc1)c1cccs1 | -11%
COc1ccc(COC(=O)c2cccnc2C)cn1 | -12%
CCOC(=O)n1c(=O)[nH]c2ccc(Br)cc21 | -18%
CNS(=O)(=O)CC(=O)Nc1cc(Br)c(F)cc1F | -14%
Cc1ncsc1C(=O)Nc1cccc(S(=O)(=O)N2CCC(CO)CC2)c1 | 7%
Cn1ncc2nnn(-c3ccccc3)c(=O)c21 | 1%
Cc1nn(Cc2ccccc2)c2nc(C3CC3)cc(C(=O)N3CCOCC3)c12 | 1%
Cc1cc(C)nc(OC(C(=O)O)C(OCc2ccccc2)(c2ccc(C(F)(F)F)cc2)c2cccc(C(F)(F)F)c2)n1 (stereo not given) | 2%
CCn1c(=O)c(N2CCN(C(=O)Nc3cccc(C(F)(F)F)c3)CC2)nc2ccccc21 | 11%
Cc1c(Nc2[nH]cnc3ncnc2-3)c(=O)n(-c2ccccc2)n1C | -24%
CNc1nc(C)nc(O)c1Br | 9%
CC(C)Nc1cccc(CNC(=O)N2CCOC[C@@H]2C)c1 | -14%
COc1ccc(CNC(=O)Cn2c(=O)n(Cc3cccc(OC)c3)c(=O)c3sccc32)cc1 | 14%
O=C(O)c1nccn1CNc1ccncc1 | 2%
CC1(C)CC(=O)C(CC(=O)N2CCCCC2)(Cc2ccccc2)C(=O)C1 | 12%
CCOC(=O)C(Nc1cccc(NC(C(=O)OCC)C(=O)OCC)c1)C(=O)OCC | -21%
CNc1nc(-c2ccccc2)nnc1C(F)(F)F | 11%
CCN(C(=O)Cn1ncn2nc(-c3cccc4ccccc34)cc2c1=O)c1ccccc1 | 11%
O=C(C[C@@]1(O)C(=O)N(Cc2ccc(Cl)cc2Cl)c2ccccc21)c1ccccn1 | -4%
CCn1nc(C)c(CN(C)C(=O)c2nn3cccnc3c2Cl)c1C | 3%
CCCc1noc([C@H](C)OC(=O)c2cc[nH]n2)n1 | 4%
CC1(C)C[C@@](CCNCc2ccc(Cl)cc2)(Cc2ccccc2Cl)CCO1 | -16%

SMILES | % Inhibition
O=C(O)CCCC(=O)NCCc1ccc(Cl)cc1 | -19%
Cc1ccc(OCc2cccc(-c3nc4c5cn[nH]c5ncn4n3)c2)c(C)c1 | 5%
CC(C)(C)c1cc(C[C@H]2CNCC[C@H]2CC(=O)N2CCC(Cc3ccccc3)CC2)no1 | 24%
CC(C)(C)C(=O)N1CCC(O)(CS(=O)(=O)Cc2ccc(Cl)cc2)CC1 | 7%
COc1cccc(C2=NS(=O)(=O)N(C)C(C(=O)N3CCC(C(N)=O)CC3)=C2)c1 | 0%
COc1cc(C(=O)N2CCN(c3ccccc3)CC2)cc2occc12 | 5%
c1nc2nc[nH]c(NC3CCCCC3)c-2n1 | 7%
Cc1n[nH]c(C)c1NC(=O)C1=NO[C@@H](CNC(=O)OC(C)(C)C)C1 | 13%
COc1ccc(OC)c(NC(=O)Cn2cnc3nc(N4CCOCC4)ncc3c2=O)c1 | 15%
CC1(C(=O)NC(C#N)c2cccc(Cl)c2)CC2CCC1O2 (stereo not given) | 0%
Cc1cccc([C@@H](NC(=O)Nc2ncco2)C(F)(F)F)c1 | -15%
CCc1ccc(-c2cc3c(=O)n(CC(=O)N4CC(C)CC(C)C4)ncn3n2)cc1 (stereo not given) | 11%
CCCCn1nnc(N(C(=O)c2cccc3c(Br)cccc23)C(=O)c2cccc3c(Br)cccc23)n1 | 0%
COc1ccc(C(O)CN2CCC(c3ccccc3)C2)cc1F (stereo not given) | 9%
Cc1ccc(OCCCOc2ccc(CO)nc2)cc1C | 8%
Cc1ccc2c(c1)C(NC(c1cccnc1)c1ncc[nH]1)CCC2 (stereo not given) | 2%
O=C(C1CC1c1ccccc1)N1CCC(c2nc3ccccc3o2)CC1 (stereo not given) | 10%
CC1=CC(=[N+](CCO)CCO)C=C/C1=C(\c1ccc(N(CCO)CCO)cc1C)c1ccccc1Cl | 87%
Cc1nc(N2CCC(C)CC2)ncc1-c1cc(=O)[nH]c(Nc2ccccc2)n1 | -13%
CCOC(=O)c1cn(CC)c2cc(NC3CCCCC3)c(F)cc2c1=O | 69%
O=C(N[C@H](c1ccccc1)C1CC1)c1cccnc1O | 1%
CN(C)c1nc(N)nc(CN2CCOc3ccc(F)cc32)n1 | 13%

SMILES | % Inhibition
CCc1nc(C)nc(N2CCN(C[C@H](O)COc3ccccc3C)CC2)c1Cc1cccc(C)c1 | 9%
CC(C)CCn1nnnc1[C@]1(N(C)C)CCCN(C(=O)c2cccn2C)C1 | -12%
O=C(Nc1ccc(Cc2ccc(NC(=O)c3ccc(Br)cc3)c(O)c2)cc1O)c1ccc(Br)cc1 | 11%
Cc1c(CN2CCc3ccccc32)cnn1C | 10%
C[C@@H](C(=O)Nc1cc(C(F)(F)F)c[nH]c1=O)n1cc(Cl)cn1 | -18%
CS(=O)(=O)N[C@H]1CCCN(c2ncc(-c3ccccc3)s2)C1 | -16%
O=C(NCC1CCCN(C(=O)C2CC3CCC2C3)C1)Nc1cccc(F)c1 (stereo not given) | 4%
c1ncc(N2CCN3CCC[C@H]3C2)nc1OCC1CCCC1 | -16%
Cc1cc(C)cc(-n2c(=O)c3sccc3n(CC(=O)Nc3ccc(N(C)C)cc3)c2=O)c1 | -16%
Nn1c(-c2ccccc2)c(-c2ccccc2)c(-c2ccccc2)cc1=O | -19%
O=C(Nc1ccc2c(c1)OCCO2)N1CCN(c2nc3cccnc3n(Cc3ccccc3)c2=O)CC1 | -16%
O=C(Nc1cn[nH]c1)C(=O)Nc1ccc(F)c(F)c1F | -8%
O=C(Nc1n[nH]c(Cc2cccc(F)c2)n1)[C@@H]1CCCc2[nH]ncc21 | 6%
COCc1cc2nn(CC(=O)Nc3ccc(F)c(F)c3)c(=O)n2c(-c2ccccc2)n1 | -15%
CCOC(=O)COc1cc(N)c(F)cc1Cl | -9%
O=C(CNC(=O)OCc1ccccc1)Nc1ccc(F)cc1 | -21%
CCCC(=O)N1CCN(c2c(C)n(-c3ccccc3)c(=O)n(C)c2=O)CC1 | 11%
Cc1cc(Br)ccc1N1CC[C@@H](C(=O)NC2CC2)C1=O | 4%
Cc1c(C(=O)NC2CC2)cc(-c2ccccc2)n1C | 6%
COC(=O)c1ccccc1NC(=O)[C@@H]1C(=O)N(c2ccc(Cl)cc2)N=C1C | 8%
CN1CCC(Nc2ncnc3c2cnn3C)C1c1ccc(Cl)cc1 (stereo not given) | 12%
